Laboratory results as given in paper PMC4336329 (PLoS ONE, 2015).
The whole screen tested about 310,000 compounds, of which about 14,000 (4.5%) showed an effect of 50% or more. The effect is printed as a negative number. Some of the results follow.

These compounds were tested against human ether-à-go-go-related gene (hERG) potassium channel (human, UniProt Q12809) (assay: primary screen, population patch clamp on CHO cells stably expressing hERG).
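Note: peak tail current of the secondary pulse compared with the same well before compound.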

Sequence of human ether-à-go-go-related gene (hERG) potassium channel (Q12809 whole entry, looked up): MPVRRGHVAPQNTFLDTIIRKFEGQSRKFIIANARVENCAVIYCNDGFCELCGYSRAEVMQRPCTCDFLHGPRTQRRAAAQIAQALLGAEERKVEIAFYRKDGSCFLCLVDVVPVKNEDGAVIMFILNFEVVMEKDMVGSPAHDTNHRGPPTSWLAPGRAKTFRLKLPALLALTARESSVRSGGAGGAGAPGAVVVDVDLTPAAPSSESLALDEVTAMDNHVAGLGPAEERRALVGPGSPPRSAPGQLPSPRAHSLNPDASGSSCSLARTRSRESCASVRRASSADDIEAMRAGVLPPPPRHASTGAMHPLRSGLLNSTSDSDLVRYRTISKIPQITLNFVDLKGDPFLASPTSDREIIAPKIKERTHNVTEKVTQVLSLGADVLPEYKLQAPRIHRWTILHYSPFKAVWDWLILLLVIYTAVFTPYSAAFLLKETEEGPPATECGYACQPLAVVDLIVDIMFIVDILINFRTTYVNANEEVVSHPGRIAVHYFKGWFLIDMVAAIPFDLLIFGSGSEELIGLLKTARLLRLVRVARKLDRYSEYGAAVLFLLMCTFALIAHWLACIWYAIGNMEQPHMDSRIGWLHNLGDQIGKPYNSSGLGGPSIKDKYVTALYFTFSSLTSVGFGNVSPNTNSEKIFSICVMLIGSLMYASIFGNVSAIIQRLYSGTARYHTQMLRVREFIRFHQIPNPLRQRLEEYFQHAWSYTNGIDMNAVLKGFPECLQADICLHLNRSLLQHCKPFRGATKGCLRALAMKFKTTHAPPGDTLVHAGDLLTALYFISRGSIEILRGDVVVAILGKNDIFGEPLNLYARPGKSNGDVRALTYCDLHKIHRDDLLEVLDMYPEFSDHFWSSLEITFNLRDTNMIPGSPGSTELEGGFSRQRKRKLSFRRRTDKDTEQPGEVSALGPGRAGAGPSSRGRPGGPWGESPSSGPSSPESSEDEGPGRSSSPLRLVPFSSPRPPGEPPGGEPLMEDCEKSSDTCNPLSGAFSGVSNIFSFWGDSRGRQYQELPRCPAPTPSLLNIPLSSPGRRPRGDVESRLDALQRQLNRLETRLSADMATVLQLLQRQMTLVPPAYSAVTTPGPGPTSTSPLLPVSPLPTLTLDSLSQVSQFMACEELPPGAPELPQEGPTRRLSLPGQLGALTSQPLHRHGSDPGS

Row | Compound | hERG current change (%, negative = inhibition) at 10uM [%]
1 | COc1cccc(OCCOc2cccc(/C=N/n3cnnc3)c2)c1 | -4.9
2 | O=C(Cn1c(-c2ccccc2)noc1=O)NCc1ccccc1 | 6.47
3 | O=C(NNC(=O)c1cc([N+](=O)[O-])ccc1Cl)c1cccs1 | 20.8
4 | COc1ccccc1CNS(=O)(=O)c1csc(C(N)=O)c1 | 20.1
5 | Cc1cc(C)nc(SCC(=O)N2CCCCC2)n1 | -4.66
6 | COCCN1CCN(C(=O)C2CCC(=O)N(CCCc3ccccc3)C2)CC1 (stereo not drawn) | 16.6
7 | CC(C)CCNC(=O)CN(C(=O)CCC(=O)Nc1nccs1)c1ccc2c(c1)OCCO2 | -4.45
8 | Cc1nc(-c2ccc(C(=O)Nc3cccc(Br)c3)cc2)cs1 | 7.02
9 | COc1ccc(/C=N/NC(=O)c2cccc(NC(=O)c3ccccc3Cl)c2)c(OC)c1 | 6.14
10 | O=C(N/C(=C\c1ccccc1Cl)C(=O)N1CCOCC1)c1ccc([N+](=O)[O-])cc1 | -66
11 | COc1ccc(C(CC(=O)NCc2ccccc2)Sc2n[nH]c(-c3ccccc3)n2)cc1 (stereo not drawn) | 14
12 | O=C(NNc1cccc(Cl)n1)Nc1cccc(Cl)c1 | -2.54
13 | CCN1CCN(C(=O)c2ccc(C)c(S(=O)(=O)Nc3cccc(C)c3)c2)CC1 | -16.3
14 | Cn1c(O)c(/C=N/c2ncccn2)c(=O)n(C)c1=O | -9.26
15 | CCC1=Nc2cc(C(=O)NCCN3CCOCC3)ccc2Sc2ccc(Br)cc21 | -26.1
16 | COc1ccccc1[As](=O)(O)CC(O)COc1ccc(Cl)cc1Cl (stereo not drawn) | 4.97
17 | COc1ccc(C(=O)NNC(=O)CN2CCN(c3nc(-c4ccccc4)cs3)CC2)cc1 | 11
18 | CN(C)c1ccc(N=C/C=C2\N(C)c3ccccc3C2(C)C)cc1 | -82.8
19 | Cc1cnc(C(=O)OCC(=O)NC(=O)NC(C)C)cn1 | 10.3
20 | O=C(N/N=C/c1cc(Cl)ccc1O)c1ccc(Br)cc1 | 23.2
21 | O=C(O)C(=O)O.O=C(c1cccc(Cl)c1)N1CCN(C2CCCCC2)CC1 | -40.8
22 | COc1cc(CC(=O)Nc2ccccc2N2CCCCC2)cc(OC)c1OC | -22.1
23 | c1ccc(-n2c(-c3cccs3)nc3nc4ccccc4nc32)cc1 | 5.51
24 | CN(CC(=O)NCc1ccc(Cl)cc1)S(=O)(=O)c1cccs1 | -12.2
25 | CN1C[C@H](C(=O)N[C@]2(C)O[C@@]3(O)[C@@H]4CCCN4C(=O)[C@H](Cc4ccccc4)N3C2=O)CC2c3cccc4[nH]cc(c34)C[C@H]21.O=C(O)C(O)C(O)C(=O)O (stereo partly drawn) | 2.03
26 | Cc1cc(C)cc(NC(=O)CCc2ccc(C)o2)c1 | -19.2
27 | COc1ccc2[nH]c3c(=O)n4c(nc3c2c1)SCCC4 | -8.13

Row | Compound | hERG current change (%, negative = inhibition) at 10uM [%]
28 | NNC(=O)c1[nH]c2ccccc2c1-c1ccccc1 | 19.2
29 | CCc1noc(C)c1C(=O)N1CCN(S(=O)(=O)c2ccccc2C(F)(F)F)CC1 | -11.7
30 | CN(Cc1cccc(F)c1)C(=O)c1ccc(S(=O)(=O)N2CCOCC2)cc1 | -4.57
31 | COc1ccc(CCNC(=O)C2=CC=CN3CCS(=O)(=O)N=C23)cc1 | -7.92
32 | Cc1c(Cl)cccc1NC(=O)N1CCCN(c2nc(-c3ccccc3)ns2)CC1 | 2.41
33 | CC1=NN(C(N)=S)C(=O)C1N=Nc1ccc(C)cc1C (stereo not drawn) | 1.29
34 | CC(=O)c1cccc(N(CC(=O)N2CCOCC2)S(C)(=O)=O)c1 | 8.61
35 | C=CCn1c(Cc2csc(N)n2)nnc1SCc1ccc(C(=O)OC)cc1 | -4.79
36 | CCCS(=O)(=O)n1nc(-c2ccc(OC)cc2OC)cc1N | -17.9
37 | COC(=O)CSc1nsc(SCC(=O)OC)c1C#N | 5.34
38 | COc1ccc(NC(=O)Cc2ccc(-c3ccccc3)cc2)cn1 | -3.01
39 | Cc1ccc(S(=O)(=O)N2CCN(CC(=O)N/N=C/c3ccccc3OCC(=O)O)CC2)cc1 | 10.5
40 | Cc1cccc(C)c1NC(=O)CCN1C(=O)C2C3CCC(C3)C2C1=O (stereo not drawn) | -6.63
41 | Cc1nc2ccc(S(=O)(=O)NCC(=O)N3CCCC(C)C3)cc2s1 (stereo not drawn) | 1.27
42 | Cc1nc(-n2ncc(C#N)c2N)c2c3c(sc2n1)CCC3 | -1.01
43 | C#Cc1ccc([C@@H]2C=C(C(=O)NCc3nc4ccccc4[nH]3)O[C@H](OCC)[C@H]2CCCO)cc1 | -30.7
44 | CCOC(=O)c1c(NC(=O)CCS(=O)(=O)c2ccccc2)sc2c1CC(C)(C)NC2(C)C | -44.9
45 | CC1=C(C(=O)O)N2C(=O)C(NC(=O)c3ccc(F)cc3)C2SC1 (stereo not drawn) | 7.21
46 | CCNC(C(=O)c1c[nH]c2c(CC)cccc12)c1ccccc1 (stereo not drawn) | 20.3
47 | CC1(c2nnc(-c3ccc(Cl)cc3)o2)CC(c2cccnc2)=NO1 (stereo not drawn) | -20.7
48 | C[C@@H]1NS(=O)(=O)[C@H]2C[C@@H]3C=C[C@]2(O3)[C@H]1OC(=O)Nc1ccc(C(F)(F)F)cc1[N+](=O)[O-] | 9.28
49 | CCOP(=O)(c1ccc(N(C)C)cc1)C(O)c1ccc(Cl)cc1 (stereo not drawn) | -5.75
50 | Cc1cccn2c(/C=N/OCc3cccc(F)c3)c(-c3ccc(Cl)cc3)nc12 | 7.45
51 | O=C1C2C(C(=O)N1/N=C/c1ccc(N3CCCCC3)o1)C1C=CC2C12CC2 (stereo not drawn) | -21.2
52 | COc1ccc(-c2c(C#N)c(SCC(=O)Nc3ccccc3)nc3c2CCCC3)cc1 | 22.2
53 | COc1ccc(-c2cc(C(F)(F)F)nc(NC3CCCC3)n2)cc1OC | -9.12
54 | CC1(C(=O)Nc2nnc(C(C)(C)C)s2)Cc2ccccc2C(=O)O1 (stereo not drawn) | -5.49
